# Laboratory results published in the BET-seq Pho4 binding data (Le et al. 2018).
# The other results are listed elsewhere or left out. Values were computed here from the reads of four pooled replicates and scatter widely.
# Molecular target: T1, Pho4 (S. cerevisiae) (UniProt P07270)
# T1 sequence: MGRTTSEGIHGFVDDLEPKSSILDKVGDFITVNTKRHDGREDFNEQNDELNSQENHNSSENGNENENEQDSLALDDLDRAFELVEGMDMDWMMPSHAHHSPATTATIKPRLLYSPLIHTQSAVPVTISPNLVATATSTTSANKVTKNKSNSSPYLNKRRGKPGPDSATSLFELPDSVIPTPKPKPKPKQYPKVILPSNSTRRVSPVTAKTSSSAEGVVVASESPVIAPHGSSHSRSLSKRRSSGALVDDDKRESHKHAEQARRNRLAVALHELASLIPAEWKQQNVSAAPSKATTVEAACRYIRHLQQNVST
# Test: relative binding free energy (BET-seq); higher = weaker binding
# Settings: reference: library average
row,Sequence,relative binding free energy
1,TATAGCACGTGGTGGG,-0.12 kcal/mol
2,ATTGCCACGTGCGTGG,-0.23 kcal/mol
3,CTGTTCACGTGTAAGA,0.27 kcal/mol
4,TGTTCCACGTGTAGGA,-0.05 kcal/mol
5,TTTGTCACGTGTTCTA,0.12 kcal/mol
6,GTCGCCACGTGGTTGT,-0.1 kcal/mol
7,ATTTTCACGTGTTGCA,0.3 kcal/mol
8,GGTATCACGTGTTTAA,-0.01 kcal/mol
9,TTGTGCACGTGCTAAG,-0.16 kcal/mol
10,TGGGTCACGTGTGTCT,0.08 kcal/mol
11,GACTGCACGTGGTTGT,0.18 kcal/mol
12,AGAGGCACGTGTCTTT,0.06 kcal/mol
13,GTTTCCACGTGGGCTG,0.05 kcal/mol
14,TGGAGCACGTGGCATG,-0.32 kcal/mol
15,TTGGGCACGTGCAGCG,-0.14 kcal/mol
16,TGAGTCACGTGTCTGA,0.15 kcal/mol
17,AGTCACACGTGTGTTA,0.05 kcal/mol
18,GGGTACACGTGGGCTA,-0.07 kcal/mol
19,AGATGCACGTGTGTAA,-0.02 kcal/mol
20,GGATTCACGTGGCATT,0.16 kcal/mol
21,AATGGCACGTGCTTGG,-0.21 kcal/mol
22,TTTCACACGTGGTTAG,0.15 kcal/mol
23,TGGTGCACGTGACTAG,0.01 kcal/mol
24,AAGTTCACGTGCTTAG,0.2 kcal/mol
25,GGGATCACGTGTGGGA,0.31 kcal/mol
26,TTGGCCACGTGGTAGA,-0.11 kcal/mol

row,Sequence,relative binding free energy
1,TACAGCACGTGATGGG,0.02 kcal/mol
2,AAGAGCACGTGTTAAT,-0.04 kcal/mol
3,TGTAACACGTGCTGTT,-0.07 kcal/mol
4,ATGTGCACGTGGCAGG,-0.09 kcal/mol
5,GCGGTCACGTGCAGGT,-0.08 kcal/mol
6,AAGTTCACGTGGTTGT,0.2 kcal/mol
7,GACGGCACGTGGTTGG,0.01 kcal/mol
8,AATCACACGTGGGGAT,0.07 kcal/mol
9,AGGTACACGTGGAAGT,0.09 kcal/mol
10,TCTGGCACGTGTAATG,0.03 kcal/mol
11,CGGGACACGTGCGTTG,-0.03 kcal/mol
12,TCTGTCACGTGGGCGA,-0.04 kcal/mol
13,GTGTTCACGTGGTTCC,0.33 kcal/mol
14,GATGGCACGTGCCGGG,-0.1 kcal/mol
15,TTTGACACGTGAATAG,0.14 kcal/mol
16,AGTTGCACGTGGGAGC,-0.17 kcal/mol
17,GCTAGCACGTGTTTGT,-0.1 kcal/mol
18,TTGTCCACGTGTGTAA,0.07 kcal/mol
19,AACGTCACGTGGGGGG,0.04 kcal/mol
20,TGCTGCACGTGGGATT,-0.15 kcal/mol
21,TTGGTCACGTGGATGC,0.23 kcal/mol
22,GGACCCACGTGGTGTG,-0.1 kcal/mol
23,TTGTGCACGTGGTTGT,-0.06 kcal/mol
24,GCTCGCACGTGTGTGG,-0.03 kcal/mol
25,GGGGCCACGTGAGTCG,0.1 kcal/mol
26,CTCGTCACGTGTAGGT,-0.06 kcal/mol

row,Sequence,relative binding free energy
1,TTCAGCACGTGTTAGG,-0.11 kcal/mol
2,TGGTACACGTGAGGTG,0.27 kcal/mol
3,CCTAGCACGTGGGGTG,-0.22 kcal/mol
4,CATGTCACGTGTCTGG,0.07 kcal/mol
5,CAAGGCACGTGGGCGG,-0.37 kcal/mol
6,ATTGGCACGTGTGGCT,-0.09 kcal/mol
7,CGGTCCACGTGGTTTG,0.04 kcal/mol
8,TGTGTCACGTGACATG,0.06 kcal/mol
9,TAGCTCACGTGTATGT,0.14 kcal/mol
10,ACTTTCACGTGTGTGT,0.22 kcal/mol
11,TTCGTCACGTGTTAAT,-0.01 kcal/mol
12,GTCGGCACGTGAGGCT,0.21 kcal/mol
13,TGGATCACGTGACTTG,0.32 kcal/mol
14,TACGGCACGTGTTAGT,-0.02 kcal/mol
15,ACTGTCACGTGATAGT,0.22 kcal/mol
16,CGAGACACGTGAAGGG,0.21 kcal/mol
17,GTATACACGTGTGTGT,-0.02 kcal/mol
18,TTAGGCACGTGAACGT,0.16 kcal/mol
19,TCCGTCACGTGGTGAT,0.14 kcal/mol
20,GATTGCACGTGTGAGA,0.23 kcal/mol
21,ATGTTCACGTGGGGTA,0.11 kcal/mol
22,TCCGGCACGTGTGTAG,-0.09 kcal/mol
23,AGTAGCACGTGTATAT,-0.11 kcal/mol
24,TTTAACACGTGGGTAT,-0.09 kcal/mol
25,TGGTGCACGTGAGCCT,0.19 kcal/mol
26,GCGGACACGTGTGGAG,0.11 kcal/mol

row,Sequence,relative binding free energy
1,CAGTGCACGTGGTGGA,-0.18 kcal/mol
2,GAATGCACGTGAGGGC,0.32 kcal/mol
3,ACTTTCACGTGGAGGG,0.16 kcal/mol
4,TGGTGCACGTGTACAT,-0.04 kcal/mol
5,AAGGGCACGTGGGTTG,-0.29 kcal/mol
6,GTATGCACGTGGTCTA,-0.03 kcal/mol
7,CATTGCACGTGTGTTT,0.03 kcal/mol
8,GATTACACGTGTAGGG,0.05 kcal/mol
9,TGCTTCACGTGGTTAT,0.26 kcal/mol
10,AATGGCACGTGGCTGT,-0.24 kcal/mol
11,CTCTTCACGTGGGGGG,0.16 kcal/mol
12,GGCTTCACGTGATATT,0.44 kcal/mol
13,CTGTTCACGTGGAGAT,0.32 kcal/mol
14,GTAGGCACGTGTATGT,-0.1 kcal/mol
15,GTGATCACGTGTATTA,0.13 kcal/mol
16,CGTAGCACGTGTCGGT,-0.04 kcal/mol
17,TGGTACACGTGGACTG,0 kcal/mol
18,GAAGTCACGTGTTTAT,0.17 kcal/mol
19,AAAATCACGTGGTTTA,0.21 kcal/mol
20,GTTGTCACGTGTAGAG,0.14 kcal/mol
21,TGTTGCACGTGCGTGT,-0.13 kcal/mol
22,TGGATCACGTGTGTTA,0.18 kcal/mol
23,GAGGACACGTGGGCGA,-0.02 kcal/mol
24,GGTCGCACGTGGCTTG,-0.02 kcal/mol
25,CGTGTCACGTGTAGGT,0.05 kcal/mol
26,GTATGCACGTGTGGCT,-0.11 kcal/mol

row,Sequence,relative binding free energy
1,TGTAGCACGTGGGACT,-0.22 kcal/mol
2,GCTTACACGTGTGTAG,0.21 kcal/mol
3,TATCGCACGTGAAAGT,0.44 kcal/mol
4,TCTGACACGTGTTATG,-0.01 kcal/mol
5,AGGTTCACGTGGGAAC,0.18 kcal/mol
6,GGGGCCACGTGAAGAG,0.17 kcal/mol
7,CGTGCCACGTGGTTTA,-0.09 kcal/mol
8,TGTGTCACGTGTCAAT,0.11 kcal/mol
9,TGATGCACGTGGCCAG,0 kcal/mol
10,TAGGGCACGTGGGGAC,-0.43 kcal/mol
11,TGGATCACGTGTAGAG,0.15 kcal/mol
12,TTGGCCACGTGGACGT,0 kcal/mol
13,AAGTGCACGTGGGCGA,-0.12 kcal/mol
14,AATATCACGTGAGATT,0.31 kcal/mol
15,GGGTTCACGTGGGTAT,0.27 kcal/mol
16,AATGTCACGTGGAGAG,0.18 kcal/mol
17,TTCTTCACGTGAGTTC,0.43 kcal/mol
18,ATTGTCACGTGAATGT,0.21 kcal/mol
19,ATTGTCACGTGTCATA,0.1 kcal/mol
20,AGGGGCACGTGAATAT,0.19 kcal/mol
21,TGGAACACGTGGTTAG,0 kcal/mol
22,GGGAACACGTGAGAGT,0.18 kcal/mol
23,AGAGGCACGTGGGAGG,-0.24 kcal/mol
24,GTTCGCACGTGTGAGA,0.11 kcal/mol
25,CTATGCACGTGTGGGG,0.01 kcal/mol
26,AGGTTCACGTGGGATT,0.24 kcal/mol

row,Sequence,relative binding free energy
1,TGTAGCACGTGCTCGT,-0.16 kcal/mol
2,AGGGGCACGTGTTTAC,-0.12 kcal/mol
3,AGGTGCACGTGTCGAG,0.1 kcal/mol
4,GCGTTCACGTGATGTT,0.41 kcal/mol
5,TACGTCACGTGGTTAT,-0.06 kcal/mol
6,AGGGTCACGTGAGTTA,0.34 kcal/mol
7,TTTAGCACGTGAGTTA,0.2 kcal/mol
8,GGTACCACGTGGGGGG,-0.16 kcal/mol
9,GTGTACACGTGGCAAG,0.06 kcal/mol
10,AGATGCACGTGGGTTC,-0.06 kcal/mol
11,GGGGGCACGTGTATTC,-0.01 kcal/mol
12,ATCAACACGTGAGGGG,0.29 kcal/mol
13,TAGTTCACGTGATCGT,0.31 kcal/mol
14,CGTATCACGTGCTTGG,0.12 kcal/mol
15,GGTAACACGTGCTGTT,-0.12 kcal/mol
16,ATGGGCACGTGGGGCA,-0.25 kcal/mol
17,TCGTGCACGTGTTTCT,0.02 kcal/mol
18,AGGGTCACGTGTATGA,0.19 kcal/mol
19,GAGTTCACGTGGAAAG,0.43 kcal/mol
20,TGCTTCACGTGTGGGA,0.22 kcal/mol
21,GCTTTCACGTGTTATG,0.26 kcal/mol
22,AAGGGCACGTGGGGTG,-0.3 kcal/mol
23,AGGCGCACGTGGTAAT,-0.09 kcal/mol
24,AGAGACACGTGTGTTA,-0.02 kcal/mol
25,TTAGTCACGTGGGCGA,-0.17 kcal/mol
26,TATGCCACGTGTATGG,-0.18 kcal/mol

row,Sequence,relative binding free energy
1,TGTGTCACGTGGATGA,0.12 kcal/mol
2,TGATACACGTGAGGAG,0.34 kcal/mol
3,GTGGACACGTGTGAGG,0.17 kcal/mol
4,CGCGGCACGTGCTGTG,-0.1 kcal/mol
5,TTGTCCACGTGTGTGG,0.04 kcal/mol
6,AGGCCCACGTGGGTTT,-0.09 kcal/mol
7,TATTACACGTGTAGGC,0.23 kcal/mol
8,ATATGCACGTGGTCAT,-0.26 kcal/mol
9,AGTCGCACGTGTATAG,0.04 kcal/mol
10,ATAGGCACGTGAATTA,0.05 kcal/mol
11,TCGGTCACGTGTTCGG,-0.08 kcal/mol
12,GGATTCACGTGGATTG,0.44 kcal/mol
13,TCGAACACGTGGTGGT,0.01 kcal/mol
14,GGTTTCACGTGATCGA,0.26 kcal/mol
15,GATTTCACGTGAATTA,0.47 kcal/mol
16,TAATACACGTGGATTG,-0.02 kcal/mol
17,CTGGGCACGTGTGAAA,-0.01 kcal/mol
18,GTATACACGTGGTGCG,-0.18 kcal/mol
19,TGACGCACGTGTTAGT,-0.02 kcal/mol
20,AGTGACACGTGAGGGG,0.19 kcal/mol
21,AATTACACGTGACGGT,0.29 kcal/mol
22,CAGGTCACGTGTTGGA,-0.01 kcal/mol
23,GGTGACACGTGAGGCT,0.16 kcal/mol
24,TTGATCACGTGAAAGT,0.38 kcal/mol
25,GTTCTCACGTGTAGGC,0.26 kcal/mol
26,GTCCGCACGTGTGGTT,0.15 kcal/mol

row,Sequence,relative binding free energy
1,GTTTTCACGTGATAAT,0.49 kcal/mol
2,CACAGCACGTGTGGGT,-0.05 kcal/mol
3,GTCTTCACGTGGAATG,0.35 kcal/mol
4,TGGAGCACGTGTTAGC,-0.04 kcal/mol
5,GTGACCACGTGGGGAG,-0.09 kcal/mol
6,TGTTGCACGTGTACGC,0.05 kcal/mol
7,CGTTTCACGTGTTTTA,0.27 kcal/mol
8,GAGGACACGTGTCGTT,0.23 kcal/mol
9,GTGATCACGTGTGTTC,0.09 kcal/mol
10,GCCAGCACGTGGGTGT,-0.17 kcal/mol
11,TTCGTCACGTGTTCAT,0.12 kcal/mol
12,GTCCGCACGTGTTGGA,0.12 kcal/mol
13,TGTAACACGTGGTATA,-0.16 kcal/mol
14,TAAAGCACGTGGCGTT,0.01 kcal/mol
15,CTCTTCACGTGGTTTG,0.09 kcal/mol
16,GGTATCACGTGAGATT,0.32 kcal/mol
17,TGTTACACGTGGTCTA,-0.12 kcal/mol
18,CTGAACACGTGTGTTT,0.01 kcal/mol
19,GGGGTCACGTGTCTGC,0.13 kcal/mol
20,TGAATCACGTGTATTT,0.27 kcal/mol
21,GTTATCACGTGGAGCT,0.13 kcal/mol
22,GGGGTCACGTGTGAAT,0.22 kcal/mol
23,AGAGGCACGTGTGGTG,-0.06 kcal/mol
24,AGGGTCACGTGTTTAA,0 kcal/mol
25,TGTTGCACGTGCACGG,-0.07 kcal/mol
26,TAGGACACGTGTTTCG,-0.05 kcal/mol

row,Sequence,relative binding free energy
1,GTTGACACGTGAAAGT,0.27 kcal/mol
2,GGGGGCACGTGAGTTT,0.24 kcal/mol
3,GGGTGCACGTGCATGC,-0.05 kcal/mol
4,TTGAACACGTGAAGGT,0.25 kcal/mol
5,TTGGTCACGTGTAGAC,0.13 kcal/mol
6,ACGTGCACGTGTTGGC,0.07 kcal/mol
7,TTATGCACGTGGGATT,0.01 kcal/mol
8,ATAGTCACGTGTTCTA,0.13 kcal/mol
9,AGATTCACGTGCTGGA,0.25 kcal/mol
10,GTAAGCACGTGATAGG,0.04 kcal/mol
11,GGGGGCACGTGGATGA,-0.1 kcal/mol
12,AGTGCCACGTGCGTGT,-0.2 kcal/mol
13,GGAGGCACGTGTGTAG,-0.09 kcal/mol
14,GATTTCACGTGTGTCA,0.24 kcal/mol
15,AAGCGCACGTGGGATG,-0.22 kcal/mol
16,GTGATCACGTGGATAT,0.22 kcal/mol
17,TCTATCACGTGGGGTT,-0.02 kcal/mol
18,CGTGCCACGTGGCAGG,-0.14 kcal/mol
19,CTTTGCACGTGTGCTT,0.03 kcal/mol
20,GCGGTCACGTGATGCT,0.24 kcal/mol
21,TCACGCACGTGAGGGG,0.05 kcal/mol
22,GGGGTCACGTGGTAGG,0.17 kcal/mol
